Measured values reported in PMC5436744 (Cardiovascular Research, 2007).
Where two headings read alike, the source gives them in different places.

Assays:
[1] = target: T1, zonula occludens-1 (human (endogenous in left ventricular …, UniProt Q07157 1-1748)); assay: co-IP
[2] = target: T1, zonula occludens-1; assay: co-IP; remark: listed apart in the source
T1 sequence (Q07157 whole entry): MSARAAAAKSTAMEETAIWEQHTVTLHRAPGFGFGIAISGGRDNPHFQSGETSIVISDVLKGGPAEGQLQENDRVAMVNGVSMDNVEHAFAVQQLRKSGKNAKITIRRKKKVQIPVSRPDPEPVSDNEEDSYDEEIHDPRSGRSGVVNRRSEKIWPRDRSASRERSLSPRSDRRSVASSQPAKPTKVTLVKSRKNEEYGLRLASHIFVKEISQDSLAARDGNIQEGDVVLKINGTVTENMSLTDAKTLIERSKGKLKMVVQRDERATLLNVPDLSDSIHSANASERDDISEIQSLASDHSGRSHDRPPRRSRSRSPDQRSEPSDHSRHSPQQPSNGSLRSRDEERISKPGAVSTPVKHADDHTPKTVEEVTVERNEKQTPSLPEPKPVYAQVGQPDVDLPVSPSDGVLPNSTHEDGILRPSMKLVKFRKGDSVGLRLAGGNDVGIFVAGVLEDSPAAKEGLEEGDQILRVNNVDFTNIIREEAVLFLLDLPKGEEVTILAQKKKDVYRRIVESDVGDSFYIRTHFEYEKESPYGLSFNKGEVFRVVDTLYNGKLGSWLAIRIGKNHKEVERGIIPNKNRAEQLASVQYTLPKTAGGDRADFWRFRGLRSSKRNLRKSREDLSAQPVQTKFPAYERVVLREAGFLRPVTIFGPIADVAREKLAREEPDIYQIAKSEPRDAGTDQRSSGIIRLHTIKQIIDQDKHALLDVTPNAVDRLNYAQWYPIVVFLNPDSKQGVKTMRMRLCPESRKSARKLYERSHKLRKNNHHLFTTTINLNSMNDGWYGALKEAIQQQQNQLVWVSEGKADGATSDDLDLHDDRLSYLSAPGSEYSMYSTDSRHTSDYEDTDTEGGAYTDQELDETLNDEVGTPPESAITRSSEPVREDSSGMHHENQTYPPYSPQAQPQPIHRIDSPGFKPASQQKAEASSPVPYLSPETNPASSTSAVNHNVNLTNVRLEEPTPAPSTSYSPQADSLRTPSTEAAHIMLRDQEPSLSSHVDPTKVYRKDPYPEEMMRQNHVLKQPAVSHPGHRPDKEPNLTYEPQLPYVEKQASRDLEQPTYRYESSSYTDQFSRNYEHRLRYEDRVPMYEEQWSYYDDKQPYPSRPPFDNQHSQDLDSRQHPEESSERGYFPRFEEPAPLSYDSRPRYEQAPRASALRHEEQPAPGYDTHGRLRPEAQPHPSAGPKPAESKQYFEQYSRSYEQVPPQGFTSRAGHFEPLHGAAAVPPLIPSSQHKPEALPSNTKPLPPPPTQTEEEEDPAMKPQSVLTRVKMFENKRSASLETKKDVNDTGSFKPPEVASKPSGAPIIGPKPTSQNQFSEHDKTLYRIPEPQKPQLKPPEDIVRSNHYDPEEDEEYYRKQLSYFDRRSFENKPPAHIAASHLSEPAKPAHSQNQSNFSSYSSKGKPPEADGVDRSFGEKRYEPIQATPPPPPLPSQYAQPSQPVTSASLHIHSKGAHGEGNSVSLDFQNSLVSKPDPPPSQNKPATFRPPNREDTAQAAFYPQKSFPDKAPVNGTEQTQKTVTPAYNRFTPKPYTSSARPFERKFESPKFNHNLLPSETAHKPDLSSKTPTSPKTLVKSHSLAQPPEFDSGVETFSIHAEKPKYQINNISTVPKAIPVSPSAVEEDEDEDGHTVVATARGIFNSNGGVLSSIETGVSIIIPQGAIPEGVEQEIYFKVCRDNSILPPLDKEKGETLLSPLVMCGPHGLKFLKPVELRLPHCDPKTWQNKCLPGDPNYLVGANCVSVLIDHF

proportion of Cx43 brought down by ZO-1, relative to Cx43 in the sample (DCM) [1]: 10.2%
proportion of Cx43 brought down by ZO-1, relative to Cx43 in the sample (ICM) [1]: 11.5%
proportion of Cx43 brought down by ZO-1, relative to Cx43 in the sample (DCM) [2]: 12.8%
proportion of Cx43 brought down by ZO-1, relative to Cx43 in the sample (ICM) [2]: 12.8%
B1: connexin43 (natural protein)
chain: not shown
